Data published in PubChem BioAssay AID2326 (National Center for Advancing Translational Sciences (NCATS), 2010).
Hit rate of the full screen: of about 270,000 compounds, about 1,100 (0.41%) were called active. Not shown: some 3% with an inconclusive outcome. The call rests on the fitted dose curve. Only a part is listed here, and it is no random draw. Entries without a call were filed so in the source.

Experiment: qHTS Assay for Inhibitors of Influenza NS1 Protein Function; further: actives are rising curves; nearly all actives have a fitted effect of over 50% in size
Settings: activity, positive = more growth: at 46.1 µM (top of the series)
Text: NIH Chemical Genomics Center [NCGC]
NIH Molecular Libraries Probe Centers Network [MLPCN]
Assay Submitter (PI): Daniel Engel
Influenza is a world-wide public health problem and emerging forms of the virus have the potential to cause a pandemic of equal or greater magnitude to the outbreaks recorded in 1918, 1957 or 1968. Vaccine development is proceeding and there also exist two classes of anti-influenza compounds. However these therapeutic modalities are neither fully effective nor widely enough available to fulfill global needs. In addition their potential usefulness against newly emergent strains is not known. Efforts are needed to develop novel agents against influenza virus, including broad-spectrum agents. Identification of small molecules that inhibit NS1 function either directly or by interfering with specific cellular pathways may be a key to increasing our defense against the virus.
We have miniaturized and optimized a cell based assay in which NS1 from influenza A is expressed in the budding yeast S. cerevisiae. NS1 is a multi-functional protein that counters the host innate immune response and facilitates viral versus cellular gene expression. Expression of NS1 causes a pronounced slow growth phenotype in yeast due to its intrinsic molecular activities. Small molecules that suppress the slow growth phenotype can be identified by a straightforward growth recovery assay using optical density (OD) as the measurement. The same yeast strain not expressing NS1 was used as positive control in the yeast growth recovery assay.
The yeast S. cerevisiae control and NS1 expressing cells were kindly supplied by laboratory of Dr. Daniel Engel, University of Virginia. Yeast starter cultures were stored in single use aliquots at -80C.
1. Yeast culture medium per liter: 1.2 g Yeast Nitrogen Base (w/out amino acids and Ammonium Sulphate), 5.0g Ammonium Sulphate, 0.77g -URA DO (drop-out) Supplement, adjust pH to 6.0. Adjust to 2% glucose prior to inoculating with yeast.
2. Yeast assay medium: 1.2 g Yeast Nitrogen Base (w/out amino acids and Ammonium Sulphate), 5.0g Ammonium Sulphate, 0.77g -URA DO (drop-out) Supplement, adjust pH to 6.0. Adjust to 2% D-galactose prior to inoculating with yeast.
1. Inoculate 100 mls of yeast culture medium with 1 ml of frozen yeast aliquote. Incubate overnight at 30C, 250RPM.
2. Harvest overnight culture at 4000 RPM and wash pellet with 15 mls H2O 3x.
3. Re-suspend washed pellet in 10 mls of yeast assay medium.
4. Prepare a 1:100 dilution of re-suspended culture in yeast assay medium.
5. Dispense 3.5 ul per well of reagents in step 4 in columns 2-48 in a black clear bottom 1536 well plate.
6. Dispense 3.5 ul per well of yeast assay medium in column 1 only.
7. Transfer 23 nl of compound per well.
8. Dispense 3.5 ul per well of yeast assay medium in columns 1-48.
9. Read plate using Viewlux protocol for optical density 600 (OD600) using excitation filter 600nm.
Potency means the concentration at half of the fitted maximal effect.

Structure (SMILES)	activity, positive = more growth	Potency
Fc1ccc(-c2nnc(Cc3ccc(Cl)cc3)o2)cc1	inactive: -32.3%	
Cc1[nH]c2ccccc2c(=O)c1SC(F)(F)C(F)C(F)(F)F (stereo not given)	inactive: -93.4%	
O=C(CN1CCOc2ccccc21)N1CCC(Cc2ccccc2)CC1	-68.9%	
Cc1cccc(CSc2nnc(-c3ccco3)o2)c1	inactive: -59.7%	
CN[C@H]1C[C@H]2O[C@@](C)([C@H]1OC)n1c3ccccc3c3c4c(c5c6ccccc6n2c5c31)C(=O)NC4	67.4%	
O=C(N/N=C/c1cccc(C(F)(F)F)c1)c1ccccc1O	inactive: -19.1%	
CN(C)S(=O)(=O)c1cccc(-c2nn(-c3ccccc3)cc2/C=C2\SC(=S)NC2=O)c1	35.6%	
O=C1CCN(CCc2ccccc2)CCN1[C@H](CSc1ccccc1)c1ccccc1	inactive: -49.7%	
CCC(=O)c1ccc(OCC(O)CN2CCCCC2)cc1 (stereo not given)	29.6%	
CCN1CCN(c2oc(COc3ccc(-c4ccccc4)cc3)nc2C#N)CC1	-82.4%	
Cc1ccc(/C=N\NC(=O)C2COc3cc4ccccc4cc3O2)o1 (stereo not given)	-36%	
Nc1ccccc1SCC(=O)Nc1cccc2ccccc12	17.7%	
Cc1c(/C=N/n2cnnc2)c2ccccc2n1CCOc1ccccc1	-89.7%	
CC(C)Cc1ccc(C(C)C(=O)Nc2ccccc2O)cc1 (stereo not given)	inactive: -46%	
CCn1nc(C(=O)Nc2ccc3nc(C)sc3c2)c2ccccc2c1=O	-33.3%	
CC(C)CC(COCc1ccc(Cl)cc1)N1CCN(C(=O)c2ccc(Cl)cc2Cl)CCC1=O (stereo not given)	-44.7%	
CC(=O)Nc1nc2ccc(Br)cc2s1	inactive: -75.4%	
CCCCC(c1nnnn1CS(=O)(=O)c1ccc(C)cc1)N1CCN(c2ccccc2)CC1 (stereo not given)		active: 7.08 µM
CC1CCCN(c2nc3c(c(=O)n(C)c(=O)n3C)n2CCSc2nc3ccccc3s2)C1 (stereo not given)	-92.1%	
Fc1ccc(-[n+]2nc(Nc3ccccc3)sc2-c2c3ccccc3cc3ccccc23)cc1	-148%	
O=c1oc2ccccc2cc1-c1ccc(O)cc1	-45.4%	
N#CC1=C(N)N2C(=C(C#N)C13CCCCC3)SC1CCCCC12O (stereo not given)	-32.7%	

Structure (SMILES)	activity, positive = more growth	Potency
Cc1ccn(-c2ccc(NC(=O)c3cccs3)cc2)n1	inactive: -70.9%	
CC1CN(S(=O)(=O)c2ccc(NC(=O)c3cc(-c4ccccc4O)n[nH]3)cc2)CC(C)O1 (stereo not given)	-48%	
O=C(c1ccco1)N1CCN(c2c(-c3ccccc3)c3cc(Cl)ccc3[nH]c2=O)CC1	-43.2%	
Cc1ccccc1-c1nc(CS(=O)CC(=O)N2CCC3(CC2)OCCO3)c(C)o1 (stereo not given)		active: 1.12 µM
Cc1nn(CCc2n[nH]c(=S)n2-c2ccc(F)c(Cl)c2)c(C)c1[N+](=O)[O-]	35.8%	
CC(=O)NC(c1ccc(C(C)C)cc1)c1ccc2cccnc2c1O (stereo not given)	inactive: -122%	
O=C(CNc1cccc(F)c1)N1CCc2ccccc2C1	inactive: -34%	
O=C(Nc1cnn(C23CC4CC(CC(C4)C2)C3)c1)c1cnn2c(C(F)(F)F)cc(-c3ccco3)nc12	-31.4%	
Cc1ccc(-c2nnc(Sc3nc4ccccc4o3)c3ccccc23)cc1	-38%	
CCc1ccc2oc(-c3cc(N)cc(C)c3O)nc2c1		active: 14.1 µM
Cn1c(=O)c2c(nc(CN3CCc4ccccc4C3)n2Cc2ccccc2F)n(C)c1=O	-43.2%	
CC1CCN(Cc2c(O)ccc3c2O/C(=C\c2ccco2)C3=O)CC1		active: 8.91 µM
N#CCCN1CCN(C(=S)c2ccc(-c3cc(Cl)ccc3Cl)o2)CC1	inactive: -29.7%	
COc1ccc(/C=C(\NC(=O)c2ccc([N+](=O)[O-])cc2)C(=O)NCCCN2CCOCC2)cc1	31.5%	
Cc1cc2c(cc1C)C(c1ccccc1OC(C)C)CC(=O)N2 (stereo not given)	inactive: -45.2%	
Cc1cc(Cl)c(S(=O)(=O)N2CCN(c3ccccn3)CC2)cc1OCC(=O)NC1CCCCC1	inactive: -33.5%	
N#Cc1nc(-c2ccc(OCc3ccccc3)cc2)oc1NCCN1CCOCC1	-74.8%	
Cc1ccc2cc(/C=C/C(=O)c3ccco3)c(Cl)nc2c1	inactive: -41.1%	
CCc1cc(OCCCCNCc2ccccc2)ccc1Cl	inactive: -31.3%	
CCc1cccc(NC(=O)CS(=O)Cc2nc(-c3ccc(C)cc3)oc2C)c1 (stereo not given)	-65.7%	
Cc1cc(C)c(S(=O)(=O)/N=C2/C=C(Sc3ncn[nH]3)C(=O)c3ccccc32)cc1C	-16.6%	
O=[N+]([O-])c1cc(-n2cnnn2)ccc1N1CCC(Cc2ccccc2)CC1	-76.6%	

Structure (SMILES)	activity, positive = more growth	Potency
CN(C)c1ccc(/C=C/C=C2/SC(=S)N(c3ccccc3)C2=O)cc1	37.9%	
CC(C)CCN(C)c1ccc(/C=N/n2cnnc2)cc1	-47.9%	
COC(=O)c1ccc(Nc2nnc(-c3ccc(C)c(S(=O)(=O)NCC4CCCO4)c3)c3ccccc23)cc1 (stereo not given)	inactive: -46.2%	
COC(=O)c1sc(NC(=O)c2ccc(OC)cc2OC)nc1C	36.3%	
C#CCOc1ccc(/C=C2/C(=O)N(c3cccc(C(=O)O)c3)N=C2C)cc1OC		active: 11.2 µM
CC(=O)c1c(C)[nH]c(C(=O)OCC(=O)Nc2sc3c(c2C#N)CCC(C)C3)c1C (stereo not given)	inactive: -39.1%	
CC1CC(C)CN(c2ccc(C(=O)NCc3ccc4c(c3)OCO4)cc2[N+](=O)[O-])C1 (stereo not given)		active: 10 µM
Cc1ccc(S(=O)(=O)N2CCOC23CCN(C(=O)c2cc(Cl)ccc2Cl)CC3)cc1	inactive: -59.9%	
CCOC(=O)N1CCN(C(=O)CCC(=O)N2CCOc3ccc(C)cc32)CC1		active: 5.62 µM
O=C1C(=O)c2cccc3cccc1c23	-53.7%	
Cc1cccc2nc(-c3ccccc3)nc(N[C@@H](CO)c3ccccc3)c12	-66.4%	
C/C(=N\NC(N)=O)c1cccc(Cl)c1	40.2%	
O=C(NCc1ccccc1F)c1ccc(S(=O)(=O)Nc2cccc(C(F)(F)F)c2)cc1	-57.5%	
COc1ccccc1-c1nc(C#N)c(N2CCN(c3ccccc3)CC2)o1	-48.4%	
CCOc1ccc(N=C2NC(=O)S/C2=C\c2ccc(N(C)C)cc2)cc1	inactive: -29.8%	
COC(=O)c1[nH]c2cccc(C)c2c1NC(=O)CN1CCN(c2ccccc2OC)CC1	inactive: -53.8%	
COc1ccc(C=C(c2nc3ccccc3s2)c2nc3ccccc3s2)cc1O		active: 15.8 µM
CCOC(=O)c1ccc(NS(=O)(=O)c2ccc(SC)cc2)cc1	-36.3%	
S=C(NCc1ccccn1)Nc1cccc(Cl)c1	-31.9%	
Cc1ccc(NC(=O)c2ccc(CSc3nnc(-c4ccncc4)n3C)cc2)c(C)c1	34%	
O=C(OCC#CCSc1nc2ccccc2o1)c1ccco1	-53.4%	
